# This is one part of the list.
# B1: MGL6A (Homo sapiens) (protein)
# chain: MTRTYENFQYLENKVKVQGFKNGPLPLQSLLQRLCSGPCHLLLSLGLGLLLLVIICVVGFQNSKFQRDLVTLRTDFSNFTSNTVAEIQALTSQGSSLEETIASLKAEVEGFKQERQAVHSEMLLRVQQLVQDLKKLTCQVATLNNNGEEASTEGTCCPVNWVEHQDSCYWFSHSGMSWAEAEKYCQLKNAHLVVINSREEQNFVQKYLGSAYTWMGLSDPEGAWKWVDGTDYATGFQNWKPGQPDDWQGHGLGGGEDCAHFHPDGRWNDDVCQRPYHWVCEAGLGQTSQESH
# How the values were obtained:
# Assay in all cases: glycan array binding signal (z-score within array); higher = stronger binding
# Conditions in all cases: glycan notation: IUPAC condensed, linker removed
# [1] = biological target: Gal(b1-3)[GlcNAc(b1-6)]GalNAc
# Outline: (§1)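 Arrays were curated from the Consortium for Functional Glycomics database, 3228 in total, and kept only where the protein sequence was available. Binding is expressed as a within-array Z-score. This score was averaged across arrays of the same protein sequence at different concentrations or buffers and across linkers, and negative values can be read as non-binding.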
# [2] = biological target: Gal(b1-3)[Neu5Ac(a2-6)]GalNAc
# Outline: as §1
# [3] = biological target: Gal(b1-3)[Neu5Ac(a2-6)]GlcNAc(b1-4)Gal(b1-4)Glc
# Outline: as §1
# [4] = biological target: Gal(b1-3)[Neu5Ac(a2-6)]GlcNAc(b1-6)Gal(b1-4)Glc
# Outline: as §1
# [5] = biological target: Gal(b1-3)[Neu5Ac(b2-6)]GalNAc
# Outline: as §1
# Gal(b1-4)Gal = biological target: Gal(b1-4)Gal
# Outline: as §1
# [6] = biological target: Gal(b1-4)GalNAc(a1-3)[Fuc(a1-2)]Gal(b1-4)GlcNAc
# Outline: as §1
# [7] = biological target: Gal(b1-4)GalNAc(b1-3)[Fuc(a1-2)]Gal(b1-4)GlcNAc
# Outline: as §1
# Gal(b1-4)Glc = biological target: Gal(b1-4)Glc
# Outline: as §1
# Gal(b1-4)Glc6S = biological target: Gal(b1-4)Glc6S
# Outline: as §1
# Gal(b1-4)GlcNAc = biological target: Gal(b1-4)GlcNAc
# Outline: as §1
# [8] = biological target: Gal(b1-4)GlcNAc(a1-6)Gal(b1-4)GlcNAc
# Outline: as §1
# Gal(b1-4)GlcNAc(b1-2)Man = biological target: Gal(b1-4)GlcNAc(b1-2)Man
# Outline: as §1
# [9] = biological target: Gal(b1-4)GlcNAc(b1-2)Man(a1-3)Man(b1-4)GlcNAc(b1-4)GlcNAc
# Outline: as §1
# [10] = biological target: Gal(b1-4)GlcNAc(b1-2)Man(a1-3)[Gal(b1-4)GlcNAc(b1-2)Man(a1-6)]Man(b1-4)GlcNAc(b1-4)GlcNAc
# Outline: as §1
# [11] = biological target: Gal(b1-4)GlcNAc(b1-2)Man(a1-3)[Gal(b1-4)GlcNAc(b1-2)Man(a1-6)]Man(b1-4)GlcNAc(b1-4)[Fuc(a1-6)]GlcNAc
# Outline: as §1
# [12] = biological target: Gal(b1-4)GlcNAc(b1-2)Man(a1-3)[Gal(b1-4)GlcNAc(b1-2)Man(a1-6)][Gal(b1-4)GlcNAc(b1-4)]Man(b1-4)GlcNAc(b1-4)[Fuc(a1-6)]GlcNAc
# Outline: as §1
# [13] = biological target: Gal(b1-4)GlcNAc(b1-2)Man(a1-3)[Gal(b1-4)GlcNAc(b1-2)Man(a1-6)][GlcNAc(b1-4)]Man(b1-4)GlcNAc(b1-4)[Fuc(a1-6)]GlcNAc
# Outline: as §1
# [14] = biological target: Gal(b1-4)GlcNAc(b1-2)Man(a1-3)[GlcNAc(b1-2)Man(a1-6)]Man(b1-4)GlcNAc(b1-4)GlcNAc
# Outline: as §1
# [15] = biological target: Gal(b1-4)GlcNAc(b1-2)Man(a1-3)[GlcNAc(b1-4)][Gal(b1-4)GlcNAc(b1-2)Man(a1-6)]Man(b1-4)GlcNAc(b1-4)GlcNAc
# Outline: as §1
# [16] = biological target: Gal(b1-4)GlcNAc(b1-2)Man(a1-3)[Man(a1-6)]Man(b1-4)GlcNAc(b1-4)GlcNAc
# Outline: as §1
# [17] = biological target: Gal(b1-4)GlcNAc(b1-2)Man(a1-6)Man(b1-4)GlcNAc(b1-4)GlcNAc
# Outline: as §1
# [18] = biological target: Gal(b1-4)GlcNAc(b1-2)Man(a1-6)[GlcNAc(b1-2)Man(a1-3)]Man(b1-4)GlcNAc(b1-4)GlcNAc
# Outline: as §1
# [19] = biological target: Gal(b1-4)GlcNAc(b1-2)Man(a1-6)[Man(a1-3)]Man(b1-4)GlcNAc(b1-4)GlcNAc
# Outline: as §1
# [20] = biological target: Gal(b1-4)GlcNAc(b1-2)[Gal(b1-4)GlcNAc(b1-4)]Man(a1-3)[Gal(b1-4)GlcNAc(b1-2)Man(a1-6)]Man(b1-4)GlcNAc(b1-4)GlcNAc
# Outline: as §1
# [21] = biological target: Gal(b1-4)GlcNAc(b1-2)[Gal(b1-4)GlcNAc(b1-4)]Man(a1-3)[Gal(b1-4)GlcNAc(b1-2)[Gal(b1-4)GlcNAc(b1-6)]Man(a1-6)]Man(b1-4)GlcNAc(b1-4)GlcNAc
# Outline: as §1
# [22] = biological target: Gal(b1-4)GlcNAc(b1-2)[Gal(b1-4)GlcNAc(b1-4)]Man(a1-3)[GlcNAc(b1-4)][Gal(b1-4)GlcNAc(b1-2)Man(a1-6)]Man(b1-4)GlcNAc(b1-4)GlcNAc
# Outline: as §1
# [23] = biological target: Gal(b1-4)GlcNAc(b1-2)[Gal(b1-4)GlcNAc(b1-4)]Man(a1-3)[GlcNAc(b1-4)][Gal(b1-4)GlcNAc(b1-2)[Gal(b1-4)GlcNAc(b1-6)]Man(a1-6)]Man(b1-4)GlcNAc(b1-4)GlcNAc
# Outline: as §1
# [24] = biological target: Gal(b1-4)GlcNAc(b1-2)[Gal(b1-4)GlcNAc(b1-6)]Man(a1-6)[Gal(b1-4)GlcNAc(b1-2)Man(a1-3)]Man(b1-4)GlcNAc(b1-4)GlcNAc
# Outline: as §1
# [25] = biological target: Gal(b1-4)GlcNAc(b1-2)[Gal(b1-4)GlcNAc(b1-6)]Man(a1-6)[Gal(b1-4)GlcNAc(b1-2)Man(a1-3)]Man(b1-4)GlcNAc(b1-4)[Fuc(a1-6)]GlcNAc
# Outline: as §1
# [26] = biological target: Gal(b1-4)GlcNAc(b1-2)[Gal(b1-4)GlcNAc(b1-6)]Man(a1-6)[GlcNAc(b1-4)][Gal(b1-4)GlcNAc(b1-2)Man(a1-3)]Man(b1-4)GlcNAc(b1-4)GlcNAc
# Outline: as §1
# [27] = biological target: Gal(b1-4)GlcNAc(b1-2)[Gal(b1-4)GlcNAc(b1-6)]Man(a1-6)[GlcNAc(b1-4)][Gal(b1-4)GlcNAc(b1-2)[Gal(b1-4)GlcNAc(b1-4)]Man(a1-3)]Man(b1-4)GlcNAc(b1-4)[Fuc(a1-6)]GlcNAc
# Outline: as §1
# [28] = biological target: Gal(b1-4)GlcNAc(b1-3)Gal(b1-3)GalNAc
# Outline: as §1
# [29] = biological target: Gal(b1-4)GlcNAc(b1-3)Gal(b1-3)GlcNAc
# Outline: as §1
# [30] = biological target: Gal(b1-4)GlcNAc(b1-3)Gal(b1-4)Glc
# Outline: as §1
# [31] = biological target: Gal(b1-4)GlcNAc(b1-3)Gal(b1-4)GlcNAc
# Outline: as §1
# [32] = biological target: Gal(b1-4)GlcNAc(b1-3)Gal(b1-4)GlcNAc(b1-2)Man(a1-3)[Gal(b1-4)GlcNAc(b1-3)Gal(b1-4)GlcNAc(b1-2)Man(a1-6)]Man(b1-4)GlcNAc(b1-4)GlcNAc
# Outline: as §1
# [33] = biological target: Gal(b1-4)GlcNAc(b1-3)Gal(b1-4)GlcNAc(b1-2)Man(a1-3)[Gal(b1-4)GlcNAc(b1-3)Gal(b1-4)GlcNAc(b1-2)Man(a1-6)]Man(b1-4)GlcNAc(b1-4)[Fuc(a1-6)]GlcNAc
# Outline: as §1
binder,measurement,setting,value
B1,glycan array binding signal (z-score),[1],-0.28
same,glycan array binding signal (z-score),[2],-0.299
same,glycan array binding signal (z-score),[3],-0.266
same,glycan array binding signal (z-score),[4],-0.249
same,glycan array binding signal (z-score),[5],-0.325
same,glycan array binding signal (z-score),Gal(b1-4)Gal,-0.317
same,glycan array binding signal (z-score),[6],0.155
same,glycan array binding signal (z-score),[7],-0.273
same,glycan array binding signal (z-score),Gal(b1-4)Glc,-0.283
same,glycan array binding signal (z-score),Gal(b1-4)Glc6S,0.086
same,glycan array binding signal (z-score),Gal(b1-4)GlcNAc,-0.075
same,glycan array binding signal (z-score),[8],-0.291
same,glycan array binding signal (z-score),Gal(b1-4)GlcNAc(b1-2)Man,-0.225
same,glycan array binding signal (z-score),[9],-0.318
same,glycan array binding signal (z-score),[10],-0.292
same,glycan array binding signal (z-score),[11],-0.306
same,glycan array binding signal (z-score),[12],-0.284
same,glycan array binding signal (z-score),[13],-0.278
same,glycan array binding signal (z-score),[14],-0.261
same,glycan array binding signal (z-score),[15],-0.27
same,glycan array binding signal (z-score),[16],-0.242
same,glycan array binding signal (z-score),[17],-0.316
same,glycan array binding signal (z-score),[18],-0.257
same,glycan array binding signal (z-score),[19],-0.256
same,glycan array binding signal (z-score),[20],-0.313
same,glycan array binding signal (z-score),[21],-0.274
same,glycan array binding signal (z-score),[22],-0.266
same,glycan array binding signal (z-score),[23],-0.304
same,glycan array binding signal (z-score),[24],-0.272
same,glycan array binding signal (z-score),[25],-0.24
same,glycan array binding signal (z-score),[26],-0.277
same,glycan array binding signal (z-score),[27],-0.268
same,glycan array binding signal (z-score),[28],-0.304
same,glycan array binding signal (z-score),[29],-0.281
same,glycan array binding signal (z-score),[30],-0.284
same,glycan array binding signal (z-score),[31],-0.278
same,glycan array binding signal (z-score),[32],-0.262
same,glycan array binding signal (z-score),[33],-0.255

# Reference: the supplement of paper PMC8728848
